Reference: PubChem BioAssay AID360 (National Center for Advancing Translational Sciences (NCATS), 2006)
In all, about 48,000 compounds went through this assay and about 550 (1.1%) were called active. About 4% were inconclusive and are not listed. Rule as the data show it: active = potency below about 15 µM; inconclusive = mostly about 16 µM to 33 µM; inactive = weaker than that. The list shows a part of the results.

Target: Lysosomal acid glucosylceramidase (Homo sapiens) (UniProt P04062)
Test: Glucocerebrosidase;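 also: the screen sought inhibitors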
Settings: purified enzyme, resorufin glucoside fluorescence (screen aimed at inhibitors), 20 min
How it was run: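 Compounds titrated against 0.2 nM normal enzyme, 30 uM resorufin beta-D-glucopyranoside substrate, citrate/phosphate buffer with taurocholate and tween-20, pH 5.9. Reaction ran 20 min at room temperature; fluorescence (Ex 548/Em 600) gave AC50.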
Potency is read from the fitted curve at half-maximal effect.

Sequence of UniProt P04062 (P04062 whole entry, looked up): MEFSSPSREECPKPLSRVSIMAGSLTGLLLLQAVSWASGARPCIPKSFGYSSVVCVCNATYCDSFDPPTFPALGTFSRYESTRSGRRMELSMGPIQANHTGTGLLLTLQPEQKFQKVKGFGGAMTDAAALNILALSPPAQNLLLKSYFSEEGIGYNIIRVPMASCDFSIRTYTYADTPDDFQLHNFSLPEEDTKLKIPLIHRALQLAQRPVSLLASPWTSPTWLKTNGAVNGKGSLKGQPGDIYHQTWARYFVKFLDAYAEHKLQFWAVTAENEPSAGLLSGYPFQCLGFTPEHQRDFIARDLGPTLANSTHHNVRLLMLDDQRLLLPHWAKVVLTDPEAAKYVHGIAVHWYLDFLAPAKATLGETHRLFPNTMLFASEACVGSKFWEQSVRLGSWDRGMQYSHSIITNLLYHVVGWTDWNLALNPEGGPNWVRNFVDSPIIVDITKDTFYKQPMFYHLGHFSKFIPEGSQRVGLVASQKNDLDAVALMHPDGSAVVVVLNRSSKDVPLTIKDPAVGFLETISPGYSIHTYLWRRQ

Potency, inactive:
CC1CN(c2ccc(Oc3ccccc3)cc2)c2nc3c(c(=O)[nH]c(=O)n3C)n2C1 (stereo not given) > 76.9 µM
Nc1nnc(SCc2coc(-c3ccc(Cl)cc3)n2)s1 > 76.9 µM
CC(=O)NCCn1c(SCC(=O)OCc2ccccc2)nc2ccccc2c1=O > 76.9 µM
CCOC(=O)c1c(C)c(C(=O)NCCCOC(C)C)c(C)n1C > 76.9 µM
O=C(CCNS(=O)(=O)c1cccs1)Nc1nccs1 > 76.9 µM
Cc1cccc(NC(=O)CCn2ccnc2C)c1 > 76.9 µM
CN(Cc1nc(-c2ccccn2)no1)S(=O)(=O)c1ccc(Br)cc1 > 76.9 µM
Cc1onc(-c2ccccc2Cl)c1C(=O)NCCn1ccc2ccccc21 > 76.9 µM
COCCNC(=O)C1c2ccccc2C(=O)N(CCOC)C1c1ccc(F)cc1 (stereo not given) > 76.9 µM
Cc1ccc(-c2noc(C3CCCN(C(=O)c4ccc(F)cc4F)C3)n2)cc1 (stereo not given) > 76.9 µM
COc1ccc(NC(=O)COc2ccccc2C#N)c(S(=O)(=O)N2CCCCC2)c1 > 76.9 µM
O=C1CCC(C(=O)O)(c2ccccc2)C1 (stereo not given) > 76.9 µM
O=C(NCc1ccccc1)C1CCCN(S(=O)(=O)c2cccnc2)C1 (stereo not given) > 76.9 µM
O=C(CN1CCN(c2nc(-c3ccc(Cl)cc3)cs2)CC1)NCc1ccco1 > 76.9 µM
Cc1[nH]c2ccc(Br)cc2c(=O)c1CN1CCCCC1 > 76.9 µM
Cc1cccc(Cn2cnc3c(nnn3Cc3ccccc3F)c2=O)c1 > 76.9 µM
Nc1nc(NCc2ccccc2)nc(-c2ccccc2)n1 > 76.9 µM
COc1ccc(-c2ccc(-c3noc(-c4ccc(OC)c(OC)c4)n3)c(OC)n2)cc1 > 76.9 µM
O=C(NCc1ccco1)C(C(=O)c1ccccc1)n1ccccc1=O (stereo not given) > 76.9 µM
Cn1c(=O)c2c(nc(CN3CCCCC3)n2CCCc2ccccc2)n(C)c1=O > 76.9 µM
N#CC1=C(N)Oc2n[nH]c(-c3cccs3)c2C1c1ccsc1 (stereo not given) > 76.9 µM
COc1ccccc1NC(=O)CS(=O)(=O)c1cccc2nsnc12 > 76.9 µM
COc1cccc(NC(=O)N2CCCC2C(=O)NC2CC2)c1 (stereo not given) > 76.9 µM
CC(C(=O)O)c1ccc(-c2ccccc2)c(F)c1 (stereo not given) > 76.9 µM
Cc1cc2nc3c(nc2cc1C)C1(C(=O)O)CCC3(C)C1(C)C (stereo not given) > 76.9 µM
COc1ccccc1N1CCN(C(CNS(=O)(=O)c2cc(F)ccc2F)c2cccnc2)CC1 (stereo not given) > 76.9 µM
CC1=Nn2c(nnc2-c2n[nH]c3c2CCC3)SC1 > 76.9 µM
Cn1c(=O)c2c(nc(SC3C(=O)CC(C)(C)CC3=O)n2C)n(C)c1=O > 76.9 µM
c1ccc2oc(SCc3cn4ccsc4n3)nc2c1 > 76.9 µM
CCOc1ccc2nc(SCC#N)c(C#N)cc2c1 > 76.9 µM
CCN(CC)S(=O)(=O)c1csc(C(=O)NC2CCCCC2)c1 > 76.9 µM
Cc1ccc(-c2csc3nnc(SCC(=O)NCc4ccc5c(c4)OCO5)n23)cc1 > 76.9 µM
COC(=O)c1c(=O)n(O)c2ccc(OC)cc2[n+]1[O-] > 76.9 µM
CCCn1c(O)c(CN2CCCC(C)C2)c(C)c(C#N)c1=O (stereo not given) > 76.9 µM
CC(C)C(=O)Nc1cccc(C(=O)Nc2nncs2)c1
Cc1onc(-c2c(Cl)cccc2Cl)c1C(=O)NCCN1CCOCC1 > 76.9 µM
Cc1nc(N)sc1Cc1ccc2c(c1)OCO2 > 76.9 µM
O=C(c1ccc(C#Cc2ccccc2)o1)N1CCN(c2ccccn2)CC1 > 76.9 µM
O=c1cc[nH]c2c(C(F)(F)F)cccc12 > 76.9 µM
CCN1C(=O)/C(=C\N2CCN(C)CC2)SC1=S > 76.9 µM
COc1cccc(C2c3c(oc4ccccc4c3=O)C(=O)N2CCCN(C)C)c1OC (stereo not given) > 76.9 µM
Cc1cccc(-n2cnc3c(c2=O)c2nc4ccccc4nc2n3Cc2ccco2)c1 > 76.9 µM
COc1cc(C)c(C(N)=O)c(OC)n1 > 76.9 µM
C=CCN(CC=C)C(=O)Cc1ccc(F)cc1 > 76.9 µM
O=C(Nc1ccc(N2CCN(C(=O)c3ccccc3)CC2)cc1)c1cc2ccccc2o1 > 76.9 µM
CN1CCN(CC#CC2(O)CCCCC2)CC1 > 76.9 µM
CC(=O)c1c(C(C)=O)c(C)n(-c2ccc(C(=O)O)cc2)c1C > 76.9 µM
Nn1c(SCC(=O)N2CCCCC2)nnc1-c1ccncc1 > 76.9 µM
COc1ccc(NCc2nnc(SCC(=O)Nc3cccc(C)c3)o2)cc1 > 76.9 µM
CCC(C)NC(=O)CN(c1cc(C)ccc1OC)S(C)(=O)=O (stereo not given) > 76.9 µM
CCOc1ccc(C(CC(=O)O)NS(=O)(=O)c2ccc(C)cc2)cc1OC (stereo not given)
O=C(CCSc1ccccc1)N1CCOCC1 > 76.9 µM
Cc1nc2nc(COc3ccccc3)nn2c(C)c1Cl > 76.9 µM
CCOC(=O)c1ccc(Nc2cc(C)nc3ncnn23)cc1 > 76.9 µM
COc1ccc(OCCSc2nnc3sc4ccccc4n23)cc1 > 76.9 µM
N#CC1=C(SCc2ccccc2Cl)NC(=O)C(C(N)=O)C1 (stereo not given) > 76.9 µM
Cn1c(/C(C#N)=C(\O)CN2CCN(Cc3ccccc3)CC2)nc2ccccc21 > 76.9 µM
CC1CCN(S(=O)(=O)c2ccc(NC(=O)CN3CCN(c4ccccc4)CC3)cc2)CC1 > 76.9 µM
CCOC(=O)N1CCN(CC(O)COc2c(OC)cccc2OC)CC1 (stereo not given) > 76.9 µM
CC(C)(C)NC(=O)C(c1ccccc1F)N(Cc1ccco1)C(=O)c1csnn1 (stereo not given) > 76.9 µM
